Here are results for six compounds from the supplement of paper PMC4604168 (melanoma cell lines).

The structures appear in SMILES notation. The list shows a part of the results. Single values are uncertain, as repeats are few or missing.
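Also: cells treated in 1,536-well plates, then fixed and DAPI-stained, with nuclei counted from automated high-throughput microscope images.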

This test relates to UACC257. In words: cell count relative to DMSO control; melanoma cells; higher = more viable cells. The conditions noted are these: library dose: standard library concentration; 72 h.
`O=c1[nH]nc(Sc2ncc([N+](=O)[O-])s2)n1-c1ccc2c(c1)OCCO2` + COc1cc(N2CCC(N3CCN(C)CC3)CC2)ccc1Nc1ncc(Cl)c(Nc2ccccc2S(=O)(=O)C(C)C)n1 [NVP-TAE684] (first compound 1 µM, partner dose 0.4 µM) had a cell count of 102%.
For the compound `O=c1[nH]nc(Sc2ncc([N+](=O)[O-])s2)n1-c1ccc2c(c1)OCCO2` + N#Cc1c(O)c2c(-c3ccc(-c4ccccc4O)cc3)csc2[nH]c1=O [A769662] (first compound 1 µM, partner dose 10 µM), the cell count is 103%.
The compound `O=c1[nH]nc(Sc2ncc([N+](=O)[O-])s2)n1-c1ccc2c(c1)OCCO2` + O=c1cc(-c2cccc3c2Sc2ccccc2S3)oc(N2CCOCC2)c1 [KU55933] (first compound 1 µM, partner dose 5 µM) came in with a cell count of 92.6%.
`O=C(Nc1cccc(Cl)c1)Nc1ncc(CCNc2ncnc3ccsc23)s1` + CC(C)CCN1c2nc(Nc3cc(F)c(O)c(F)c3)ncc2N(C)C(=O)C1C [BID1870] (first compound 0.004 µM, partner dose 1 µM): the cell count turned out to be 65.4%.
Compound `Cn1cncc1[C@@](N)(c1ccc(Cl)cc1)c1ccc2c(c1)c(-c1cccc(Cl)c1)cc(=O)n2C` [tipifarnib] + COc1cc(N2CCC(N3CCN(C)CC3)CC2)ccc1Nc1ncc(Cl)c(Nc2ccccc2S(=O)(=O)C(C)C)n1 [NVP-TAE684] (first compound 0.05 µM, partner dose 0.4 µM) had a cell count of 81.4%.
`C[C@@H]1CCN(C(=O)CC#N)C[C@@H]1N(C)c1ncnc2[nH]ccc12` + CCCCCCCCCCCC1=C(O)C(=O)C=C(O)C1=O [Embelin] (first compound 5 µM, partner dose 6 µM) returned a cell count of 101%.
